{
  "source": "ChEMBL document CHEMBL4888484",
  "about": "“Replenishing the malaria drug discovery pipeline: Screening and hit evaluation of the MMV Hit Generation Library 1 (HGL1) against asexual blood stage Plasmodium falciparum ,using a nano luciferase reporter read-out” (2022)",
  "note": "In all, about 150,000 compounds went through this assay and about 540 (0.36%) showed an effect of 50% or more. The list shows a part of the results.",
  "data": [
    {"test_system": "Plasmodium falciparum", "assay": "Primary screen in NF54 nanoGlo assay, in single point, at 2uM, 72h; a lower Z score goes with more inhibition", "assay_type": "functional, Erythrocyte", "details": "timepoint 72 hour", "units": {"% Inhibition": "%"}, "values": [
      {"compound": "Cn1nc([C@@H]2CCCCN2C(=O)Nc2ccccc2Cl)c2c1CCOC2", "% Inhibition": -10, "Z score": 0.97},
      {"compound": "COc1ccccc1-n1ncnc1-c1c[nH]c(=O)c(Cl)c1", "% Inhibition": -17, "Z score": 2.23},
      {"compound": "Cc1onc(C(=O)N2CC[C@H]3[C@H](CCC(=O)N3CCC(C)C)C2)c1CO", "% Inhibition": -5, "Z score": 0.64},
      {"compound": "CC(C)S(=O)(=O)c1c(Cl)cccc1NS(=O)(=O)c1ccc2c(c1)C[C@H](C)O2", "% Inhibition": -11, "Z score": 0.99},
      {"compound": "COc1ccc(-c2cc(C(=O)N3C[C@@H]4C[C@@H](C3)c3cccc(=O)n3C4)c3ccccc3n2)cc1", "% Inhibition": -3, "Z score": 0.45},
      {"compound": "CCOCCOc1cc(C)ccc1CN=C(NC)NC", "% Inhibition": 2, "Z score": -0.36},
      {"compound": "Cc1ccc(C(=O)N2CCN(c3ncccc3C(N)=O)CC2)cc1NC(=O)C1CCCC1", "% Inhibition": -5, "Z score": 0.68},
      {"compound": "C[C@H]1CCN(C(=O)CC(N)=O)CC1(F)F", "% Inhibition": -3, "Z score": 0.33},
      {"compound": "CCc1ncc(C(=O)NCc2ccnc(C(F)(F)F)c2)s1", "% Inhibition": -8, "Z score": 1.16},
      {"compound": "c1ccc2[nH]c(CN3CCC(c4nnc[nH]4)CC3)nc2c1", "% Inhibition": -16, "Z score": 2.34},
      {"compound": "O=C(Cc1cccc(Cl)c1)NC[C@H](O)CN1CCCCC1", "% Inhibition": 6, "Z score": -1.1},
      {"compound": "N#Cc1ccc(OCc2nnnn2C2CC2)c(Cl)c1", "% Inhibition": 2, "Z score": -0.17},
      {"compound": "CCCc1nc(Cc2cccs2)nn1-c1cc(S(N)(=O)=O)ccc1F", "% Inhibition": 1, "Z score": -0.15},
      {"compound": "O=C(NCc1cccnc1)Nc1nccs1", "% Inhibition": 1, "Z score": -0.24},
      {"compound": "Cn1c(CN2CCOCC2)cc(=O)n(C)c1=O", "% Inhibition": -15, "Z score": 1.65},
      {"compound": "O=C1CNC(=O)N1CCCC(=O)N1CCCCCc2ccccc21", "% Inhibition": -19, "Z score": 2.02},
      {"compound": "Cn1cc(-c2ccc(C(=O)N3CCC(F)(F)CC3)cc2)cn1", "% Inhibition": -7, "Z score": 1.3},
      {"compound": "CCCNC(=O)N1CCCN(c2nc(C3CC3)nc3c2cnn3-c2cccc(Cl)c2)CC1", "% Inhibition": -20, "Z score": 2.11},
      {"compound": "O=C(c1cc(-c2ccccc2)n[nH]1)N1C[C@@H](CN2CCOCC2)[C@@H](CO)C1", "% Inhibition": -14, "Z score": 2.55},
      {"compound": "CN1CCC[C@@H]1CCNC(C)(C)c1cn(-c2ccccc2)nn1", "% Inhibition": 0, "Z score": -0.05},
      {"compound": "Cc1oc(-c2ccc(C(=O)N3CCN(c4ccccc4)CC3)cc2)nc1CN1CCC(C)CC1", "% Inhibition": 42, "Z score": -3.95},
      {"compound": "c1ccc(CNc2ccc(-c3nc4ccccc4o3)cc2)cc1", "% Inhibition": -11, "Z score": 1.52},
      {"compound": "c1cc2c(cc1-c1nnc(NCc3csc(C4CC4)n3)o1)OCO2", "% Inhibition": -11, "Z score": 1.3},
      {"compound": "CNc1snc(C)c1C(=O)N1CCN(Cc2ccc(-c3ccccc3F)s2)CC1", "% Inhibition": 3, "Z score": -0.65},
      {"compound": "O=C(Nc1cccc(-c2noc(C3CCC3)n2)c1)c1ccc2c(c1)OCO2", "% Inhibition": -4, "Z score": 0.66},
      {"compound": "O=C(NCCC(=O)N1CCN(C2CS(=O)(=O)CC2O)CC1)c1cc(F)ccc1Br", "note": "(centres undefined)", "% Inhibition": -2, "Z score": 0.46},
      {"compound": "CCOc1ncccc1NC(=O)c1sc(-c2nnc[nH]2)nc1C", "% Inhibition": -8, "Z score": 0.71},
      {"compound": "C[C@H](NCC(C)(O)c1ccc(Br)cc1F)C(N)=O", "note": "(some centres undefined)", "% Inhibition": -20, "Z score": 3.91},
      {"compound": "CCn1c(=O)c(-c2nc(-c3ccc4c(c3)OCO4)no2)c(O)c2ccccc21", "% Inhibition": -7, "Z score": 0.96},
      {"compound": "CCN(C(C)=O)c1nc2ccccc2n(CC(=O)Nc2ccccc2)c1=O", "% Inhibition": -3, "Z score": 0.5},
      {"compound": "O=C(Cc1cccnc1)NC[C@H]1CCCN(c2ncccc2F)C1", "% Inhibition": 2, "Z score": -0.31},
      {"compound": "O=C(NC[C@H]1COCc2nc3ccccc3n21)c1cncnc1", "% Inhibition": 16, "Z score": -1.84},
      {"compound": "O=C(NCc1ncc(Br)cn1)N1CC2(CCCCC2)C1", "% Inhibition": -7, "Z score": 0.95},
      {"compound": "COc1ccc2c(c1)C1(CC1)CN(c1cncc(C#N)n1)C2", "% Inhibition": -2, "Z score": 0.46},
      {"compound": "CC1NC2(C(=O)N(CC(=O)N3CCOCC3)c3ccccc32)C2C(=O)N(c3cccc4ccccc34)C(=O)C12", "note": "(centres undefined)", "% Inhibition": -1, "Z score": 0.09},
      {"compound": "COc1ccc(-c2cc3ncc(S(=O)(=O)c4ccccc4)c(-c4ccc(C)cc4)n3n2)cc1", "% Inhibition": 30, "Z score": -3.87},
      {"compound": "CCCN(Cc1ccncc1)Cc1cnc2c(-c3ccccc3)cnn2c1", "% Inhibition": 14, "Z score": -1.92},
      {"compound": "O=C(NCc1ccc(F)cc1)N1CC[C@@H]2CN(Cc3ccccc3)[C@@H]2C1", "% Inhibition": -14, "Z score": 1.78},
      {"compound": "NCc1ccc(C(=O)N(CCc2ccc(F)cc2)C2CCCC2)o1", "% Inhibition": 10, "Z score": -1.84},
      {"compound": "CCOc1ncccc1CNC(=O)C[C@H]1CCOc2ccccc21", "% Inhibition": -12, "Z score": 1.33},
      {"compound": "O=C(Nc1cccc(CNc2nc3ccccc3o2)c1)c1ccccn1", "% Inhibition": -13, "Z score": 1.61},
      {"compound": "CS(=O)(=O)N1CCN(C(=O)c2cc3c(s2)CCCCCC3)CC1", "% Inhibition": -21, "Z score": 1.92}
    ]}
  ]
}
